# PubChem BioAssay AID1465 (SRMLSC, 2008)
# The whole screen tested about 220,000 compounds, of which about 160 (0.073%) were called active. Inconclusive means that the source gave no clear call. Such entries were picked first, then a sample of the others.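 The calls were made as follows: active = fold induction of absorbance versus untreated yeast above a set limit, then at least 30% activation at any dose in follow-up; inconclusive = repeats straddling the limit, or above it without dose testing; inactive = fold induction below the set limit.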
# Test: enhancers of respiration in Yfh1-depleted yeast, dose response, Friedreich's ataxia, plus single-dose screen (AID 1465)
# Conditions: S. cerevisiae Yfh1-off respiration, WST-1 reduction, 72 h; at 50 µM; hits give high values
row,SMILES,fold induction
1,CCCNC(=O)c1ccc2c(=O)c(O)c(-c3cccc(Br)c3)[nH]c2c1,inconclusive: 1.28
2,S=C(NCCC(c1ccccc1)c1ccccc1)Nc1ccc(Cl)cc1,inconclusive: 1.35
3,Cn1c(SCC(=O)Nc2ccc(NC(=O)c3cccs3)cc2)nnc1-c1ccncc1,inconclusive: 1.33
4,COc1cc(OC)cc(C(=O)N[C@H](C(=O)Nc2nc3ccccc3[nH]2)C(C)C)c1,inconclusive: 1.33
5,Cc1nc2c(C)cccn2c1/C(O)=C1\C(=O)C(=O)N(CCN(C)C)C1c1ccncc1 (stereo not drawn),inactive: 1.11
6,Cc1cc(Nc2ccc(O)cc2)n2c(nc3ccccc32)c1C#N,inconclusive: 1.33
7,COc1cccc(NC(=O)NCCC2=CCCCC2)c1,inactive: 0.86
8,c1ccn2c(Cc3nnc4ccccn34)nnc2c1,inconclusive: 1.33
9,COc1nc(N(CC(N)=O)S(=O)(=O)c2ccccc2)nc(C)c1Cl,inconclusive: 1.06
10,CC(C)Oc1ccc(C(=O)N/N=C/c2ccc(-c3ccc(S(=O)(=O)Nc4ncccn4)cc3)o2)cc1,inconclusive: 1.17
11,NC(=S)n1[nH]c(-c2ccc([N+](=O)[O-])cc2)c(N=Nc2cccc(Cl)c2)c1=O,inactive: 1.01
12,N#CC1=C(N)Oc2cc(O)ccc2C1c1ccccc1 (stereo not drawn),inconclusive: 1.5
13,COCCNC(=O)c1cnn2c(C(F)F)cc(-c3ccccc3)nc12,inactive: 1.17
14,CCC1=NNc2cccc3c(OC)ccc1c23,inconclusive: 1.49
15,O=C(CSc1nc2c(c(C(F)(F)F)n1)CCc1ccccc1-2)NCc1ccccc1,inconclusive: 1.13
16,CCN(CC)c1ccc(/C=C(\C#N)c2ccccn2)cc1,inconclusive: 1.4
17,Nc1ccc(N=Nc2ccccc2Cl)c(N)n1,inconclusive: 1.47
18,Cc1cnccc1CN(C)Cc1nc(Cc2ccccc2Cl)no1,inactive: 0.85
19,CCCCn1c(=O)[nH]c2nc3cc(N)ccc3nc2c1=O,inconclusive: 1.33
20,CN=C1C=C/C(=N/N=c2\ccn(O)cc2C)C=C1C,inconclusive: 1.9
21,Cc1cc(/C=C2/SC(=S)N(c3cccc(C(F)(F)F)c3)C2=O)c(C)n1-c1cccnc1,inconclusive: 1.14
22,S=c1nc(C2CC2)[nH]c2ccccc12,inconclusive: 1.32

row,SMILES,fold induction
1,CC(C)c1nnc(SCC(=O)N2CCc3ccccc32)n1C,inactive: 0.98
2,CCOC(=O)c1sc(NC(=O)CCN2CCCCCC2)c(C(=O)OCC)c1C,inconclusive: 1.34
3,COc1ccccc1N1CCN(Cc2cc(Br)c(O)c3ncccc23)CC1,inactive: 0.74
4,COc1ccc(C2CC(c3ccccc3OC(C)=O)=NN2C(=O)/C=C/c2ccccc2)cc1 (stereo not drawn),inconclusive: 1.33
5,O=[N+]([O-])c1ccc(N2CCCCC2)cc1SCCO,inconclusive: 1.34
6,COc1cccc(NC(=O)CSc2nnc(-c3ccoc3C)n2-c2ccccc2)c1,inconclusive: 1.15
7,CN1/C(=C\C=O)C(C)(C)c2ccccc21,inactive: 1.07
8,O=C1C(Cl)=C(N2CCC(C(=O)O)CC2)C(=O)c2ccccc21,inconclusive: 1.35
9,COc1ccc(Cn2c(O)c(C=Nc3ccccc3)c3ccccc3c2=O)cc1,inactive: 1.05
10,O=C(O)c1cc([N+](=O)[O-])c(NCc2cccnc2)c([N+](=O)[O-])c1,inconclusive: 1.35
11,COC(=O)Cc1[nH]nc2c1C(c1c[nH]c3ccccc13)C(C#N)=C(N)O2 (stereo not drawn),inconclusive: 1.33
12,CCOc1cc(/C=N/NC(=O)Cn2nc([N+](=O)[O-])cc2C)ccc1OCc1ccc(F)cc1,inconclusive: 1.23
13,Cc1ccc(NCc2ccc(O)c3ncccc23)cc1C,inconclusive: 1.33
14,COc1ccc(Cl)cc1-c1n[nH]c(=S)n1C1CCCCC1,inconclusive: 1.27
15,COc1ccc(C2CC(c3ccccc3)=NN2c2ccc(/C=N/NC(=O)c3ccncc3)cc2)cc1 (stereo not drawn),inconclusive: 1.22
16,CC[n+]1c(/C=C2\C=C(C)CC(C)C2)sc2ccccc21 (stereo not drawn),inactive: 0.873
17,CCCCOC(=O)CSC1=C(C#N)C(c2ccccc2OCC)C(C#N)C(=O)N1 (stereo not drawn),inconclusive: 1.35
18,CC(=O)c1cccc(NC(=O)N2CCCC2C(=O)Nc2c(C)cccc2C)c1 (stereo not drawn),inactive: 1.07
19,Cc1nc(C)c(/C(O)=C/c2nc3ccccc3oc2=O)s1,inconclusive: 1.35
20,Cc1ccc(-c2nc3ccccc3s2)cc1NC(=O)c1ccc2c(c1)OCO2,inconclusive: 1.52
21,O=C1NCC(c2ccccc2)C1C(=O)N/N=C\c1ccc(-c2ccc(Cl)c(Cl)c2)o1 (stereo not drawn),inconclusive: 1.19
22,COC1=C(c2ccccc2)C(=O)c2ccccc2C1=O,inactive: 1.01

row,SMILES,fold induction
1,N#CC(C#N)=C1CCc2ccccc2N1,inconclusive: 1.33
2,CC(=O)N1CCN(c2ccc([N+](=O)[O-])cc2C#N)CC1,inconclusive: 1.33
3,CCCCCCn1cnc2c(c1=O)c1nc3ccccc3nc1n2Cc1cccs1,inconclusive: 1.17
4,C=CCN1C=CC=C/C1=C1\SC(=S)N(C)C1=O,inconclusive: 1.35
5,Cc1ccc(C(=O)NN2C(=O)/C(=C/c3cn(C)c4ccccc34)SC2=S)cc1,inconclusive: 1.5
6,Cc1nn(-c2ccccc2)c(N2CCCC2)c1/C=N/n1cnc2scc(-c3ccccc3)c2c1=O,inconclusive: 1.07
7,CCCC(=O)NC(c1ccc(OC)c(OC)c1)c1cc(Cl)c2cccnc2c1O (stereo not drawn),inactive: 1.13
8,COc1ccc(Cl)cc1N1Cc2ccccc2C1,inconclusive: 1.13
9,CC1=NN(c2ccc(C)c(C)c2)C(=O)C1C(c1cccc(O)c1)C1C(=O)N(c2ccc(C)c(C)c2)N=C1C (stereo not drawn),inconclusive: 1.29
10,CC(OC(=O)c1c2c(nc3ccccc13)/C(=C\c1ccc3c(c1)OCO3)CCC2)C(=O)Nc1ccc(S(N)(=O)=O)cc1 (stereo not drawn),inconclusive: 1.43
11,CSC1=C(C#N)C(c2ccccc2C)C(C#N)=C(N)N1 (stereo not drawn),inconclusive: 1.34
12,COc1ccc(C2C(C#N)=C(N)Nc3nc4ccccc4n32)cc1 (stereo not drawn),inconclusive: 1.33
13,CCCCNC(=O)COC(=O)c1c2c(nc3ccccc13)/C(=C/c1cccs1)CC2,inconclusive: 1.37
14,CCOc1cc(/C=N\O)cc(Cl)c1OCC,inactive: 0.87
15,CCOC(=O)c1sc(=S)n(-c2ccc(C)cc2)c1N,inconclusive: 1.33
16,Cc1cccc(CNc2ccc(C(CC(N)=O)NC(=O)c3ccccc3)cc2[N+](=O)[O-])c1 (stereo not drawn),inconclusive: 1.27
17,COc1cc(/C=C(\C#N)c2nc3ccccc3[nH]2)cc(Br)c1OCc1ccc(F)cc1,inconclusive: 1.21
18,N#CC1=C(SCc2ccccc2)NC(=O)CC1c1ccccc1 (stereo not drawn),inconclusive: 1.34
19,COc1cc(N=Nc2c(C)n(C)n(-c3ccccc3)c2=O)ccc1N,inconclusive: 1.35
20,CC1CCCC(NC(=O)c2ccc3c(=O)n(CC4CCCO4)c(=O)[nH]c3c2)C1C (stereo not drawn),inactive: 1.02
21,CCOC(=O)Nc1cccc(Cl)c1C,inconclusive: 1.37
22,CCCCCC(=O)NC(=S)NNC(=O)CC,inactive: 0.75

row,SMILES,fold induction
1,O=C1CSC(=S)N1/N=C/c1ccc(O)c([N+](=O)[O-])c1,inconclusive: 1.42
2,O=C1NN(c2ccc(F)cc2)C(=O)/C1=C\c1cnn(-c2ccccc2)c1,inactive: 1.14
3,COc1ccccc1N1C(=O)CC(Nc2ccc(N3CCOCC3)cc2)C1=O (stereo not drawn),inconclusive: 1.32
4,NC(=O)COC(=O)CCCSc1nc2ccccc2s1,inconclusive: 1.34
5,CCCCc1cc(=O)oc2cc(OCc3cc(OC)c(OC)c(OC)c3)c(Cl)cc12,inconclusive: 1.14
6,Cc1c(Nc2cc(N3CCCCCC3)c3nonc3c2[N+](=O)[O-])c(=O)n(-c2ccccc2)n1C,inconclusive: 1.33
7,COc1ccc(-c2cc(-c3cccs3)c(C#N)c(SCC(=O)NCc3ccccc3)n2)cc1,inconclusive: 1.12
8,O=C(CC1(O)C(=O)Nc2ccccc21)c1ccc(-n2cnnn2)cc1 (stereo not drawn),inactive: 1.11
9,CC(/C=C/c1ccc(N(C)C)cc1)=N/N=C1/NC(=O)CC(C(=O)Nc2ccc(Cl)cc2)S1 (stereo not drawn),inconclusive: 1.34
10,Cc1nn(-c2cc(N3CCCC3)ccc2[N+](=O)[O-])c(=O)c2ccccc12,inconclusive: 1.27
11,Cn1c(=O)c(NCCO)c2c3c(cccc31)C(=O)c1ccccc1-2,inconclusive: 1.19
12,FC(F)Sc1ccc(NC(=S)NC2CCC(NC(=S)Nc3ccc(SC(F)F)cc3)CC2)cc1 (stereo not drawn),inconclusive: 1.6
13,CCCNC(=O)c1ccc2c(=O)c(O)c(-c3ccc(Cl)c([N+](=O)[O-])c3)[nH]c2c1,inconclusive: 1.25
14,Cc1ccc(N=C2NC(=O)/C(=C/c3cn(C)c4ccccc34)S2)cc1C,inconclusive: 1.52
15,NS(=O)(=O)c1ccc(NC(=S)NC(=O)/C=C/c2cccs2)cc1,inconclusive: 1.35
16,COc1c(Cl)cc(Cl)cc1C(=O)n1nc(C)cc1C,inactive: 0.88
17,COc1cc(NC(=O)CN(c2ccc(C)cc2)S(=O)(=O)c2c(C)nn(C)c2C)cc(OC)c1,inconclusive: 1.45
18,COc1ccc(NS(=O)(=O)c2ccc(N/N=C(\C)c3ccncc3)c([N+](=O)[O-])c2)cc1,inconclusive: 1.33
19,O=C(Cc1csc(Nc2nc(=S)[nH]c3ccccc23)n1)NCCCN1CCN(c2cccc(Cl)c2)CC1,inconclusive: 1.33
20,COc1cccc(-c2cc3c(=O)n(-c4ccccc4)c(=S)[nH]c3s2)c1,inconclusive: 1.42
21,CCCNC(=O)C1(CC2CC(c3ccccc3)=NO2)CCN(C(=O)CCCCCBr)CC1 (stereo not drawn),inactive: 1.03
22,CC(C)(CO)Nc1ccc([N+](=O)[O-])cc1[N+](=O)[O-],inconclusive: 1.37
